# Measured values reported in the BET-seq Pho4 binding data (Le et al. 2018).
# This is one part of the list. The energies were worked out here from pooled read counts, against the library average; single values are noisy.
# Target: T1, Pho4 (S. cerevisiae) (UniProt P07270)
# T1 sequence: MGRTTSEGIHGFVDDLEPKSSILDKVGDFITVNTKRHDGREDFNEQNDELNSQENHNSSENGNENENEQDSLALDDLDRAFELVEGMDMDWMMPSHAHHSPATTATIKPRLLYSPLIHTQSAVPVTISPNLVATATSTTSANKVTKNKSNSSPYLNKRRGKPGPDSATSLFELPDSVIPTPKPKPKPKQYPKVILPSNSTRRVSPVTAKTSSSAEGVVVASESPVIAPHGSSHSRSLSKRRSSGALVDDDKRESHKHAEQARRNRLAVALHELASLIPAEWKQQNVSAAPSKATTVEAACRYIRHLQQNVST
# Assay: relative binding free energy (BET-seq); higher = weaker binding
# Details: reference: library average
row,Sequence,relative binding free energy
1,TGGGACACGTGGCTTA,-0.08 kcal/mol
2,TGTAACACGTGTTCTG,-0.14 kcal/mol
3,TTTGGCACGTGTATAT,-0.19 kcal/mol
4,TTGATCACGTGGTTGC,0.17 kcal/mol
5,TTTCTCACGTGTGCGT,0.29 kcal/mol
6,CTGTGCACGTGGTATG,-0.19 kcal/mol
7,CGGTGCACGTGATGGG,0.06 kcal/mol
8,CGTAGCACGTGGTGTT,-0.24 kcal/mol
9,TTGTACACGTGCTGGG,0.08 kcal/mol
10,CTTTTCACGTGTATGT,0.35 kcal/mol
11,GGGATCACGTGGGAGG,0.16 kcal/mol
12,TCTATCACGTGTGGAG,0.15 kcal/mol
13,GTACGCACGTGAAGTG,0.2 kcal/mol
14,GTGAGCACGTGGGGTG,-0.23 kcal/mol
15,ATTATCACGTGGTGCA,0.01 kcal/mol
16,GGGTCCACGTGGAAGT,0.09 kcal/mol
17,ATTGACACGTGTTATA,0.05 kcal/mol
18,TACGTCACGTGGTGAG,-0.1 kcal/mol
19,TGTCACACGTGGATGA,0.13 kcal/mol
20,AACTGCACGTGGAGTG,0.02 kcal/mol
21,CAGTGCACGTGCGGGT,-0.05 kcal/mol
22,GTAGGCACGTGTTGAT,-0.02 kcal/mol
23,GGTACCACGTGTGAGG,0.05 kcal/mol

row,Sequence,relative binding free energy
1,ACGCTCACGTGGGTTT,0.1 kcal/mol
2,TTTAGCACGTGAATAG,0.21 kcal/mol
3,TTGTTCACGTGCTATT,0.26 kcal/mol
4,TAGATCACGTGTTCAT,0.11 kcal/mol
5,TAAGACACGTGGATAG,0.07 kcal/mol
6,CTGTCCACGTGGGCGG,0 kcal/mol
7,GAAGGCACGTGTTTCT,0.05 kcal/mol
8,AGAGCCACGTGGAGGT,-0.11 kcal/mol
9,CTAGGCACGTGGCTGG,-0.31 kcal/mol
10,CGTAGCACGTGGATTG,-0.11 kcal/mol
11,GTGGGCACGTGCGAGA,-0.22 kcal/mol
12,AGGGACACGTGTAGTT,0.02 kcal/mol
13,GATTTCACGTGGCAAG,0.29 kcal/mol
14,TTTCGCACGTGGGTCT,-0.3 kcal/mol
15,CGGTTCACGTGTGAGA,0.3 kcal/mol
16,ATTTTCACGTGTGCCG,0.21 kcal/mol
17,ACGATCACGTGTTTGT,0.11 kcal/mol
18,TTCTGCACGTGGGTAT,-0.15 kcal/mol
19,TTTGTCACGTGAGGCA,0.17 kcal/mol
20,ATGGGCACGTGAAGTT,0.14 kcal/mol
21,GGGGACACGTGTTAAA,0.1 kcal/mol
22,TATACCACGTGGTTTT,0.02 kcal/mol
23,TGTGGCACGTGGATTA,0.03 kcal/mol

row,Sequence,relative binding free energy
1,GATGTCACGTGTAAGG,0.2 kcal/mol
2,GTGTGCACGTGGTACT,-0.03 kcal/mol
3,TGATACACGTGTATTA,0.08 kcal/mol
4,GACAGCACGTGTGGGG,0.04 kcal/mol
5,GCTATCACGTGGGTGT,0.11 kcal/mol
6,TAGGGCACGTGGCGCA,-0.23 kcal/mol
7,CTTTGCACGTGTGTGG,-0.05 kcal/mol
8,TGGCACACGTGAGCGT,0.13 kcal/mol
9,GAGTTCACGTGTGAGA,0.5 kcal/mol
10,AGAATCACGTGTGGCT,0.29 kcal/mol
11,AAGAGCACGTGGTGTA,-0.29 kcal/mol
12,GAAATCACGTGTGGGA,0.3 kcal/mol
13,TCTATCACGTGGGGGC,0.04 kcal/mol
14,GTTGACACGTGATTGG,0.15 kcal/mol
15,CGATTCACGTGGGTGG,0.17 kcal/mol
16,TTGCACACGTGTAGTT,0.05 kcal/mol
17,TGGTTCACGTGTGTTA,0.38 kcal/mol
18,GCGTGCACGTGGTTCG,0 kcal/mol
19,TCGGGCACGTGGCATG,-0.16 kcal/mol
20,GGTTTCACGTGCCGGT,0.21 kcal/mol
21,TTTTACACGTGTCAGG,0.15 kcal/mol
22,TATAACACGTGGTTGG,-0.13 kcal/mol
23,TGTATCACGTGTATTG,0.06 kcal/mol

row,Sequence,relative binding free energy
1,TAGGTCACGTGTGGTA,0.15 kcal/mol
2,ATTGTCACGTGTGAGT,0.1 kcal/mol
3,GATGTCACGTGGTAGA,-0.01 kcal/mol
4,GGTAACACGTGGTCGA,-0.01 kcal/mol
5,TGTAACACGTGGATCG,0.07 kcal/mol
6,ATTGGCACGTGCTATG,-0.14 kcal/mol
7,TGTAGCACGTGACGCT,0.06 kcal/mol
8,TTGACCACGTGTTTTT,-0.02 kcal/mol
9,GTGTGCACGTGTACTA,0.03 kcal/mol
10,CGCAGCACGTGATGTT,0.21 kcal/mol
11,AGTTGCACGTGCAAGG,-0.05 kcal/mol
12,ATGTTCACGTGTTAGG,0.32 kcal/mol
13,CTCGTCACGTGTGTTG,0.17 kcal/mol
14,TGGTGCACGTGTGGAT,0.05 kcal/mol
15,ATACTCACGTGGAGTG,0.17 kcal/mol
16,GCGGTCACGTGAGGTA,0.3 kcal/mol
17,GGTCTCACGTGTCGGA,0.37 kcal/mol
18,AGCGGCACGTGTAGTA,-0.11 kcal/mol
19,GTATTCACGTGTAAGG,0.35 kcal/mol
20,TGATACACGTGGGCAG,-0.16 kcal/mol
21,TTAATCACGTGATGCT,0.26 kcal/mol
22,GTTTGCACGTGGAGGC,0.17 kcal/mol
23,TTACTCACGTGTGTTG,0.18 kcal/mol

row,Sequence,relative binding free energy
1,TAGTCCACGTGGGCGT,-0.07 kcal/mol
2,GTGGGCACGTGGTTGT,-0.08 kcal/mol
3,CGGAGCACGTGGGTTA,-0.09 kcal/mol
4,TGTGGCACGTGTTCTT,-0.03 kcal/mol
5,GGTATCACGTGGATGC,0.25 kcal/mol
6,TGGTACACGTGTTAGA,0.12 kcal/mol
7,CGAGTCACGTGGGTGA,-0.16 kcal/mol
8,TCTTTCACGTGGGAGT,0.33 kcal/mol
9,CGCTTCACGTGTGTTG,0.23 kcal/mol
10,GTAAGCACGTGTTTGC,-0.08 kcal/mol
11,CGGGGCACGTGGTAAG,-0.23 kcal/mol
12,AGATGCACGTGCTTGG,-0.19 kcal/mol
13,GAGTGCACGTGCGGTA,-0.01 kcal/mol
14,TTGGACACGTGTAATT,0.26 kcal/mol
15,AATTTCACGTGGTTTG,0.24 kcal/mol
16,TTCTGCACGTGTCGTG,-0.07 kcal/mol
17,GAGTTCACGTGAAAGT,0.61 kcal/mol
18,TTTCTCACGTGCTGTG,0.14 kcal/mol
19,AGTTACACGTGTCGAG,0.13 kcal/mol
20,GCACGCACGTGAGGGT,0.16 kcal/mol
21,ATTTACACGTGCGGTT,-0.03 kcal/mol
22,AAAGGCACGTGTTATT,-0.22 kcal/mol
23,GTGAGCACGTGTGGTG,0.08 kcal/mol
